Among all 310,000 compounds or so, about 2,200 (0.71%) showed an effect of 50% or more. The effect is printed as a negative number. The list shows a part of the results.

Sequence of human ether-à-go-go-related gene (hERG) potassium channel (Q12809 whole entry, looked up): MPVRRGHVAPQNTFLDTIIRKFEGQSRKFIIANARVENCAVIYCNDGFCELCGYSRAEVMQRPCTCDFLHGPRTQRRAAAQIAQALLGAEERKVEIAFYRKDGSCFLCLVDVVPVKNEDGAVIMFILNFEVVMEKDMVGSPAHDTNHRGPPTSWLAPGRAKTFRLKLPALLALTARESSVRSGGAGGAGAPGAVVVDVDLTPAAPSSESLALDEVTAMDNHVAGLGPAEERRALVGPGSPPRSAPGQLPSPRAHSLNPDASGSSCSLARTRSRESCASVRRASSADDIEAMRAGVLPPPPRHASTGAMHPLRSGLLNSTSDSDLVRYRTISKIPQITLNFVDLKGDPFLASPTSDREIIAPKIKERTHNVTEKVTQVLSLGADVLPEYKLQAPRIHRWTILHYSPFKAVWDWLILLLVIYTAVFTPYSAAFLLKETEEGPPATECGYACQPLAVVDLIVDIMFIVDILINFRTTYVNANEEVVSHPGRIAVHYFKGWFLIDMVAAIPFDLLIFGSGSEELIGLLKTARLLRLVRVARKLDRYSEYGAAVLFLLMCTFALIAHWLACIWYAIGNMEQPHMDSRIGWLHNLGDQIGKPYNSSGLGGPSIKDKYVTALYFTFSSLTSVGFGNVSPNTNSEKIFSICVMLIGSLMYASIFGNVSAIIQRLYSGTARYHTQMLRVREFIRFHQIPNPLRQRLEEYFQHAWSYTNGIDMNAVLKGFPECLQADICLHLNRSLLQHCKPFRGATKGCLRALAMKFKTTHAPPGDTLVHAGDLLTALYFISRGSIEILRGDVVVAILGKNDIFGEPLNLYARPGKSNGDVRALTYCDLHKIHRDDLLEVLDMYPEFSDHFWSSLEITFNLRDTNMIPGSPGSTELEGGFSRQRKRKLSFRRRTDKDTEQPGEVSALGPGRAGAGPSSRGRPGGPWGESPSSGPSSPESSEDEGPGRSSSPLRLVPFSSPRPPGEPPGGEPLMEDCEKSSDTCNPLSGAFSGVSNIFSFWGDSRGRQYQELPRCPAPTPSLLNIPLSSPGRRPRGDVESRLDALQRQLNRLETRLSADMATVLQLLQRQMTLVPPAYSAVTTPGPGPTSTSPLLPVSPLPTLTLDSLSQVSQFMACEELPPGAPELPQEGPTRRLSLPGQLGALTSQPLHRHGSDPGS

This assay addresses human ether-à-go-go-related gene (hERG) potassium channel (human, UniProt Q12809). As to the kind of experiment: primary screen, population patch clamp on CHO cells stably expressing hERG.
For the compound `Nc1ccc(C(=O)OCc2nc3ccccc3[nH]2)cc1`, the “hERG current change (%, negative = inhibition) at 1uM” value stood at 12.5%. As for `C=CCn1cnc2c(nnn2-c2ccc(Cl)cc2)c1=O`, the “hERG current change (%, negative = inhibition) at 1uM” value amounted to 2.52%. Then `COc1cccc(Cn2cc(C)cc(NC(=O)NCc3ccccc3)c2=O)c1`, with 14.8%; and `COc1ccc(OCC(=O)NC(CC(=O)O)c2ccc(OC)c(OC)c2)cc1` (stereo not drawn), with 19.2%.

For the compound `COc1ccc(C2C(C(=O)c3ccco3)=C(O)C(=O)N2c2nnc(C)s2)cc1OC` (stereo not drawn), the “hERG current change (%, negative = inhibition) at 1uM” value turned out to be 18.1%. Next, `CCOc1ccc(S(=O)(=O)N2CCCCC2)cc1NS(=O)(=O)c1cccs1`: 9.96%; `O=C(O)c1ccccc1C(=O)c1ccc(Oc2ccccc2)cc1`: 14.2%; `CCOc1ccc2nc(SCC(=O)N(C)C3CCS(=O)(=O)C3)[nH]c2c1` (stereo not drawn): 1.23%. Then `CC(=O)Nc1sc2c(c1C(c1ccccc1)N1CCOCC1)CCCC2` (stereo not drawn), with 13.6%; and `C[N+](C)(C)CCNC(=O)c1c(O)c2c([nH]c1=O)CCCC2.[I-]`, with 11.7%. Then `COc1ccc(C(=O)C2CCCN(C(=O)c3c4c(nn3C)CCCC4)C2)cc1F` (stereo not drawn), with 10.5%; and `Cc1ccc(S(=O)(=O)NC(=NC2CCCCC2)c2ccc(F)cc2)cc1`, with -18.3%. As to `COC(c1ccccc1)c1nnc(CCC(=O)N(C)CCc2ccccc2)o1` (stereo not drawn), the “hERG current change (%, negative = inhibition) at 1uM” value is -0.24%.

Turning to `COC(=O)C1=C(c2ccc3ccccc3c2)C[C@@H]2CC[C@H]1N2C(=O)N1CCC(C)CC1`, the “hERG current change (%, negative = inhibition) at 1uM” value is recorded as 8.02%.

For the compound `O=C(COC(=O)c1cnccn1)c1ccc(Br)cc1`, the “hERG current change (%, negative = inhibition) at 1uM” value turned out to be 6.61%. With `CCN1CCC(N2CCN(c3ccc(Cl)cc3)CC2)CC1`, the “hERG current change (%, negative = inhibition) at 1uM” value stood at 10.7%. Regarding `Cc1cccc(OCC(=O)Nc2ccc3c4c(cccc24)CC3)c1C`, the “hERG current change (%, negative = inhibition) at 1uM” value is 16.3%. Regarding `O=C(CN1C(=O)S/C(=C\c2cccs2)C1=O)Nc1ccc(O)c(C(=O)O)c1`, the “hERG current change (%, negative = inhibition) at 1uM” value turned out to be 8.11%. Take `O=C(NCc1ccccc1)c1ccc2nnsc2c1`: the “hERG current change (%, negative = inhibition) at 1uM” value was found to be 4.58%. With `CC(C)NC(=O)CC(=O)N/N=C/c1cccs1`, the “hERG current change (%, negative = inhibition) at 1uM” value is listed as 12.7%. Regarding `Cc1ccccc1NC(=O)NC1(C(=O)N2CCOCC2)CCCCC1`, the “hERG current change (%, negative = inhibition) at 1uM” value is recorded as 17.8%. For the compound `Cc1[nH]n(-c2ccccc2)c(=O)c1C(c1ccccc1C(=O)O)c1c(C)[nH]n(-c2ccccc2)c1=O`, the “hERG current change (%, negative = inhibition) at 1uM” value is on record as 0.933%.

As for `COc1cc(/C=N/NC(=O)Cn2nnc3ccccc32)ccc1O`, the “hERG current change (%, negative = inhibition) at 1uM” value worked out at 12.8%.

On to `c1ccc(CCCCN2CCN=C2Nc2ccccc2)cc1`, for which the “hERG current change (%, negative = inhibition) at 1uM” value was -11.5%. In the case of `Cc1ccc(NC(=O)C2CCN(S(C)(=O)=O)CC2)cc1`, the “hERG current change (%, negative = inhibition) at 1uM” value is on record as 9.57%. Then `Cc1nnc(SCC(=O)N2CCCC(C(=O)c3ccc(Cl)cc3)C2)o1` (stereo not drawn), with 0.262%; and `CCN(CC(=O)N1CCCC1)S(=O)(=O)c1ccc(F)cc1`, with 14.7%. On to `Cc1cccc(Cl)c1NC(=O)N1CCN(c2ccnc3cc(Cl)ccc23)CC1`, for which the “hERG current change (%, negative = inhibition) at 1uM” value is listed as -2.42%.

With `O=C(Nc1ccc(F)cc1)C(c1ccccc1)N1CCN(CC(=O)N2CCOCC2)CC1` (stereo not drawn), the “hERG current change (%, negative = inhibition) at 1uM” value is -14.5%.

As for `CCN(C(=O)COC(=O)/C=C/c1ccco1)c1c(N)n(Cc2ccccc2)c(=O)[nH]c1=O`, the “hERG current change (%, negative = inhibition) at 1uM” value is 6.05%. Take `CC(=O)N1CCCC(N2CCN(c3cccc(C(F)(F)F)c3)CC2)C1` (stereo not drawn): the “hERG current change (%, negative = inhibition) at 1uM” value is reported as 3%.

Take `CC(=O)c1ccc(NC(=O)c2cc(CC(C)C)on2)cc1`: the “hERG current change (%, negative = inhibition) at 1uM” value is 14%. With `CCn1c(Cn2nnc(-c3ccccc3)n2)nnc1SCC(=O)Nc1ccc(C(C)=O)cc1`, the “hERG current change (%, negative = inhibition) at 1uM” value worked out at 5.63%. `COc1ccccc1C(=O)N/C(=C/c1ccco1)C(=O)Nc1ccc(C(=O)O)cc1`: the “hERG current change (%, negative = inhibition) at 1uM” value was 5.28%. Consider `Cc1ccc(S(=O)(=O)N2CCC(n3nnc4cc(C)ccc43)CC2)cc1`, for which the “hERG current change (%, negative = inhibition) at 1uM” value was -9.01%.

As for `COc1ccc(NC(=O)C(=O)NCCC2CCCCN2S(=O)(=O)c2ccccc2)cc1` (stereo not drawn), the “hERG current change (%, negative = inhibition) at 1uM” value is -21.8%. With `COc1ccc(OC)c(C(=O)c2coc3ccc(OC(C)=O)cc23)c1`, the “hERG current change (%, negative = inhibition) at 1uM” value is 14.8%.

Turning to `COC(=O)CSC1=C(C#N)C(c2ccsc2)CC(=O)N1` (stereo not drawn), the “hERG current change (%, negative = inhibition) at 1uM” value is recorded as 11.8%.

As to `CC[C@@H]1CC=C[C@H]2[C@H]1C(=O)N(Cc1ccccc1)[C@H]2c1ccc(OC)c(Cl)c1`, the “hERG current change (%, negative = inhibition) at 1uM” value is recorded as 13.9%. Take `COC(=O)c1ccc(N=CC2=C(O)CC(c3ccccc3)CC2=O)cc1` (stereo not drawn): the “hERG current change (%, negative = inhibition) at 1uM” value amounted to 14.8%. As to `CCOC(=O)CNC(=O)Cn1cnc2c(nnn2-c2ccc(OC)cc2)c1=O`, the “hERG current change (%, negative = inhibition) at 1uM” value was found to be 11%. `CCN(CC(=O)Nc1ccc(OC)cc1)CC(=O)Nc1ccc(Br)cc1F`: the “hERG current change (%, negative = inhibition) at 1uM” value is reported as -3.75%. Next, `CC1=CC2CC1C1C(=O)N(c3ccc(S(=O)(=O)Nc4nc(C)cc(C)n4)cc3)C(=O)C21` (stereo not drawn): 14.6%; `N/C(COc1ccc(Cl)cc1Cl)=N\O`: 7.59%; `COc1ccc2nc(NCCCNC(=O)c3cc(OC)c(OC)c(OC)c3)c(C#N)cc2c1`: 8.52%. Next, `COc1ccc(C2(C)NC(=O)N(CC(=O)NCc3ccccc3)C2=O)cc1OC` (stereo not drawn): 12.4%. Take `Cc1ccc(S(=O)(=O)c2c(N)n(/N=C/c3ccco3)c3nc4ccccc4nc23)cc1C`: the “hERG current change (%, negative = inhibition) at 1uM” value was -14%.

For `CC(=O)Nc1ccc(S(=O)(=O)N(C)CC(=O)OCC(=O)N(C)C2CCS(=O)(=O)C2)cc1` (stereo not drawn), the “hERG current change (%, negative = inhibition) at 1uM” value came out at 5.91%. As for `CCOC(=O)c1cnc(-n2nc(C)cc2C)nc1NC1CCCC1`, the “hERG current change (%, negative = inhibition) at 1uM” value is 5.56%. As for `Cc1ccc(C(=O)CNc2cc(C)ccc2C)cc1`, the “hERG current change (%, negative = inhibition) at 1uM” value was 16.4%. Consider `CCOC(=O)c1cc2sccc2n1CC(=O)C(C)(C)C`, for which the “hERG current change (%, negative = inhibition) at 1uM” value is -2.62%. `CC(=O)c1ccc(-n2nncc2C)cc1`: the “hERG current change (%, negative = inhibition) at 1uM” value is listed as 7.46%. For `O=C1CCN(S(=O)(=O)c2ccccc2)CCN1CCOCc1ccc(C(F)(F)F)cc1`, the “hERG current change (%, negative = inhibition) at 1uM” value was -8.18%.

For `CC1(C)CCCC2=C1CC1C(=O)N(c3ccccc3)C(=O)C1C2` (stereo not drawn), the “hERG current change (%, negative = inhibition) at 1uM” value is recorded as -5.84%. Then `Cc1occc1C(=O)NNS(=O)(=O)c1ccc([N+](=O)[O-])cc1`, with 11.7%; and `Nc1nc2c(nc(SCc3ccccc3Br)n2C2OC(CO)C(O)C2O)c(=O)[nH]1` (stereo not drawn), with 27.1%; and `CC(C)C[C@H](NS(=O)(=O)c1ccc(Br)cc1)C(=O)O`, with 5.43%. On to `Cc1cccc(C(=O)N(Cc2cccs2)C2CCS(=O)(=O)C2)c1` (stereo not drawn), for which the “hERG current change (%, negative = inhibition) at 1uM” value is listed as 16.4%. As for `O=C(Cc1ccccc1)NCC(=O)Nc1ccc(OC(F)(F)F)cc1`, the “hERG current change (%, negative = inhibition) at 1uM” value is reported as 17.2%. As to `COc1ccc(NC2=CC(=S)NC(C)(C)C2)cc1`, the “hERG current change (%, negative = inhibition) at 1uM” value is on record as 12.8%.

As for `O=C(CSc1nnc(-c2ccc(Cl)cc2)o1)NNC(=O)c1ccncc1`, the “hERG current change (%, negative = inhibition) at 1uM” value is 10.4%. On to `COC(=O)c1ccc2c(c1O)C(=O)c1ccccc1C2=O`, for which the “hERG current change (%, negative = inhibition) at 1uM” value was found to be 3.82%. For the compound `COc1cc(C(=O)OCCCN2CCCN(CCCOC(=O)c3cc(OC)c(OC)c(OC)c3)CC2)cc(OC)c1OC.Cl`, the “hERG current change (%, negative = inhibition) at 1uM” value is given as -49.1%. Take `CC(C)CCN1CCN(Cc2cccc(C(F)(F)F)c2)CC1CCO` (stereo not drawn): the “hERG current change (%, negative = inhibition) at 1uM” value is given as -17.6%. For `COc1cc(CC(C)N)c(OC)cc1I.Cl` (stereo not drawn), the “hERG current change (%, negative = inhibition) at 1uM” value is -2.02%. On to `CC(=O)NC(c1ccco1)c1cc(Cl)c2ccc(Cl)nc2c1O` (stereo not drawn), for which the “hERG current change (%, negative = inhibition) at 1uM” value is -2.55%. Next, `CN(C)CCCN(C(=O)c1ccc([N+](=O)[O-])s1)c1nc2cc3c(cc2s1)OCCO3.Cl`: -23.1%; `O=C(CC1C(=O)NCCN1Cc1cccc(F)c1)NCCCOc1cccnc1` (stereo not drawn): 12.2%; `N#CCC(=O)Nc1ccc(C(=O)Nc2cccnc2)cc1`: 7.86%. Regarding `O=C(Nc1cscc1S(=O)(=O)c1ccccc1)c1ccccc1Cl`, the “hERG current change (%, negative = inhibition) at 1uM” value was 9.29%. Then `Cc1ccc(NC(=O)N2C3CCCC2CC(NC(=O)C2CC2)C3)cc1` (stereo not drawn), with 15.4%. Next, `CC1=NN(C(=O)CSCc2ccccc2)C(O)(c2ccc(Cl)cc2)C1` (stereo not drawn): 4%; `C[C@H]1COc2c(C3(N)CC3)c(F)cc3c(=O)c(C(=O)O)cn1c23`: 15.4%. In the case of `N#CCOc1coc(CN2CCN(c3ccccc3)CC2)cc1=O`, the “hERG current change (%, negative = inhibition) at 1uM” value was found to be 13.5%. As for `CCOC(=O)c1c(NC(=O)c2nc3n(n2)C(C(F)F)CC(C)N3)sc2c1CCCC2` (stereo not drawn), the “hERG current change (%, negative = inhibition) at 1uM” value is 7.5%.

On to `COc1ccc(NC(=O)/C=C/c2ccc(OC)c(OC)c2)cn1`, for which the “hERG current change (%, negative = inhibition) at 1uM” value is 8.03%.

For the compound `Cn1c(CN2CCOCC2)nc2cc(NC(=O)c3ccc(Cl)cc3)ccc21`, the “hERG current change (%, negative = inhibition) at 1uM” value is recorded as -2.15%. For the compound `CC(=O)NC1=NN(C(C)=O)C(C)(c2ccc(C)o2)S1` (stereo not drawn), the “hERG current change (%, negative = inhibition) at 1uM” value turned out to be 10.4%. Next, `CC(=O)N(C)c1ccc(NC(=O)Cc2cccc3ccccc23)cc1`: 11.7%; `O=C(O)/C=C/C(=O)Nc1ccc(NC(=O)c2ccccc2)c(Cl)c1`: 14.3%; `Cc1ccc(S(=O)(=O)Cc2ccc(C(=O)N3CCC4(CC3)OCCO4)o2)cc1`: 10.5%. Regarding `O=C(CCCn1c(=O)c2sccc2n(CC(=O)NCc2ccco2)c1=O)NCc1ccco1`, the “hERG current change (%, negative = inhibition) at 1uM” value is on record as 0.163%.

For `CCOc1ccccc1NC(=O)CCn1nc(C)c(S(=O)(=O)N2CCCCC2)c1C`, the “hERG current change (%, negative = inhibition) at 1uM” value stood at 13.2%. As for `O=C(CCCCC(=O)Nc1ccccc1Cl)Nc1ccccc1Cl`, the “hERG current change (%, negative = inhibition) at 1uM” value was determined as 18.5%. In the case of `Cc1ccc(-c2cc(C(=O)N3CCCCC3)c3ccccc3n2)cc1C`, the “hERG current change (%, negative = inhibition) at 1uM” value was determined as 7.98%.

For the compound `COc1ccc(C)cc1NC(=O)C1CCCN(S(=O)(=O)c2cnc[nH]2)C1` (stereo not drawn), the “hERG current change (%, negative = inhibition) at 1uM” value is 13.9%. As to `CCCC(=O)NC(=S)Nc1cccc2c(O)cccc12`, the “hERG current change (%, negative = inhibition) at 1uM” value was found to be 9.3%.
